# Data taken from PubChem BioAssay (NCATS).
# “And” between values parts separate entries of the source, which are not always exact repeats. Equal values may be shown once. The inconclusive results got no clear call from the source; some entries with a clear call stand among them for comparison. For part of these data: Potencies of inconclusive entries are doubtful fits and often do not repeat. The source made the active and inactive calls. Calls follow the shape of the dose curve; as a rule, active = well fitted curve in the direction sought with a large enough effect; inconclusive = small, poorly fitted or top-dose-only effect, or another doubt; inactive = no such curve, though single readings can be large; an effect the other way counts as inactive or inconclusive.
# Legend:
# [1] = qHTS of pediatric cancer cell lines to identify multiple opportunities for drug repurposing: Primary screen for Rh30 cells (AID 1347107); also: nearly all actives have a fitted effect of over 75% in size
# Procedure, shortened: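 Viability after 48 h compound treatment at 37C, 500-1,000 cells/well, read as ATP luminescence with CellTiter-Glo. Primary screens used 11-point (MIPE, 0.78 nM-46 µM) or 8-point (NPC, 0.59 nM-46 µM) final concentrations; follow-up screens used 11-point dilutions.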
# [2] = qHTS of pediatric cancer cell lines to identify multiple opportunities for drug repurposing: Primary screen for Rh41 cells (AID 1347108); also: nearly all actives have a fitted effect of over 70% in size
# Procedure, shortened: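 Quantitative HTS format: each compound titrated (MIPE 11 points from 0.78 nM, NPC 8 points from 0.59 nM) onto cells plated 5 hours earlier. After 48 h at 37 degrees C, CellTiter-Glo luminescence was recorded.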
# [3] = Quantitative High-Throughput drug screen in 47 multiple myeloma cell lines against the NCATS MIPE library collection: ARD_JJKsccE7 cell viability assay (AID 1918929); settings: ARD myeloma cell line viability, CellTiter-Glo, 48 h; viability: at 45.8 µM (top of the series)
# Procedure, shortened: (§1)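 Luminescent ATP measurement with CellTiter-Glo gives viability, scaled between DMSO-only wells (100%) and media-only wells (0%). Cells, 500 per well, faced library compounds for 48 hours at 37C.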
# [4] = Quantitative High-Throughput drug screen in 47 multiple myeloma cell lines against the NCATS MIPE library collection: KMS12PE_JCRB cell viability assay (AID 1918972); also: nearly all actives have a fitted effect of over 30% in size
# Procedure, shortened: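 Myeloma cell lines, 500 cells per well, exposed to MIPE 4.0 library compounds for 48 h at 37C, 5% CO2. Viability from ATP by CellTiter-Glo luminescence; normalised to DMSO (100%) and media-only (0%) wells.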
# [5] = Quantitative High-Throughput drug screen in 47 multiple myeloma cell lines against the NCATS MIPE library collection: KMS21BM_JCRB cell viability assay (AID 1918974); settings: ATP luminescence, 48 h; viability: at 45.8 µM (top of the series) unless noted
# Procedure, shortened: as §1
# [6] = Quantitative High-Throughput drug screen in 47 multiple myeloma cell lines against the NCATS MIPE library collection: LP1_DSMZ cell viability assay (AID 1918982); also: nearly all actives have a fitted effect of over 35% in size
# Procedure, shortened: (§2)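 500 cells/well per myeloma line exposed to pinned MIPE 4.0 compounds for 48 h at 37 °C, 5% CO2. Viability read as ATP by CellTiter-Glo luminescence, normalised to DMSO-only (100%) and media-only (0%) wells.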
# [7] = Quantitative High-Throughput drug screen in 47 multiple myeloma cell lines against the NCATS MIPE library collection: U266_ATCC cell viability assay (AID 1919864); also: nearly all actives have a fitted effect of over 35% in size
# Procedure, shortened: as §2
# [8] = Quantitative High-Throughput drug screen in 47 multiple myeloma cell lines against the NCATS MIPE library collection: PE2_PLB cell viability assay (AID 1919869); also: nearly all actives have a fitted effect of over 35% in size
# Procedure, shortened: as §2
# [9] = Quantitative High-Throughput drug screen in 47 multiple myeloma cell lines against the NCATS MIPE library collection: RPMI8226_ATCC cell viability assay (AID 1919871); also: nearly all actives have a fitted effect of over 30% in size
# Procedure, shortened: as §2
# [10] = tested on: CP260; assay: qHTS profiling for inhibitors of Plasmodium falciparum proliferation (AID 504749); also: nearly all actives have a fitted effect of over 60% in size; settings: P. falciparum in erythrocytes, SYBR Green DNA, 72 h; series mostly up to 28.7 µM
# Procedure, shortened: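 P. falciparum-infected erythrocytes (0.3% parasitemia, 2.5% hematocrit) incubated with compound 72 h at 37 C, 5% CO2. Parasite DNA detected by SYBR Green after lysis, overnight at room temperature; normalised to 0.29 uM artemisinin and DMSO.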
# [11] = qHTS for differential inhibitors of proliferation of Plasmodium falciparum line D10 (AID 1877);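 also: parasites grown with compound for 72 h before DNA staining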
# [12] = target: Papain (Carica papaya) (UniProt P00784); assay: Primary qHTS assay for inhibitors of the protease papain (AID 1645873);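 also: papain turnover of Z-FR-AMC read as the AMC fluorescence gain over 10 min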
# [13] = HepG2 cells viability qHTS for Zika virus inhibitors (AID 1347168)
# Procedure, shortened: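 Cells seeded at 2.5 x 10^5 cells/mL in DMEM with 4% FBS and attached overnight at 37 degrees C, then exposed to compound for 24 to 48 hours. Viability read as ATP content by CellTiter Glo luminescence.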
# [14] = target: Glutaminase kidney isoform, mitochondrial (Homo sapiens) (UniProt O94925); assay: qHTS for Inhibitors of Glutaminase (GLS): LOPAC Validation (AID 624146); also: nearly all actives have a fitted effect of over 60% in size
# Procedure, shortened: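 Two-point fluorescence kinetic (t0, 30 min RT) for hKGA; glutamate detected via glutamate oxidase–HRP–Amplex Red. Substrate: 1 mM L-glutamine solution; buffer 45 mM KH2PO4, pH 8.2.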
# [15] = qHTS for Inhibitors of ATXN expression: Validation (AID 588378); also: nearly all actives have a fitted effect of over 75% in size
# Procedure, shortened: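 Compounds were pinned onto attached HEK293 cells carrying an ATXN2-firefly luciferase construct and incubated 24 hrs at 37 degrees C. Each well then received a fluorescent viability reagent followed by luciferase substrate for end-point luminescence.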
# [16] = target: Phospholipid hydroperoxide glutathione peroxidase GPX4 (Homo sapiens) (UniProt P36969); assay: Primary qHTS Assay for Inhibitors of Recombinant Selenoprotein Glutathione Peroxidase 4 (GPX4) (AID 1845192); also: nearly all actives have a fitted effect of over 65% in size
# Procedure, shortened: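 GR-coupled assay: recombinant GPX4 preincubated 30 min with compound at room temperature; final 200 nM GPX4, 1 mM GSH, 0.5 mM cumene hydroperoxide, 0.5 mM NADPH, 100 nM GR, 0.01% BSA, pH 7.5 Tris. NADPH fluorescence (340/450 nm) read at 0 and 15 min.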
# Potency is read from the fitted curve at half-maximal effect; tags tell the direction and shape of the fitted curve.
# Chain of UniProt P00784 (P00784 whole entry, looked up): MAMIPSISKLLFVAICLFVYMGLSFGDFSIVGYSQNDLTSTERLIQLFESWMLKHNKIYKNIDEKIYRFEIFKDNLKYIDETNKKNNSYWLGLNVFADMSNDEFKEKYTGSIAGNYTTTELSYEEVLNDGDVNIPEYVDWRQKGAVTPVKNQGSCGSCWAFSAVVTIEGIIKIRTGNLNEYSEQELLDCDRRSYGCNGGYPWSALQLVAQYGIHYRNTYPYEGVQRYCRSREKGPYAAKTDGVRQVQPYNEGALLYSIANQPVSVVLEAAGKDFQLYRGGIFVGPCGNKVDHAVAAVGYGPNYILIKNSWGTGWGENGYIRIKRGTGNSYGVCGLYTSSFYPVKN
# Chain of UniProt O94925 (O94925 whole entry, looked up, canonical isoform): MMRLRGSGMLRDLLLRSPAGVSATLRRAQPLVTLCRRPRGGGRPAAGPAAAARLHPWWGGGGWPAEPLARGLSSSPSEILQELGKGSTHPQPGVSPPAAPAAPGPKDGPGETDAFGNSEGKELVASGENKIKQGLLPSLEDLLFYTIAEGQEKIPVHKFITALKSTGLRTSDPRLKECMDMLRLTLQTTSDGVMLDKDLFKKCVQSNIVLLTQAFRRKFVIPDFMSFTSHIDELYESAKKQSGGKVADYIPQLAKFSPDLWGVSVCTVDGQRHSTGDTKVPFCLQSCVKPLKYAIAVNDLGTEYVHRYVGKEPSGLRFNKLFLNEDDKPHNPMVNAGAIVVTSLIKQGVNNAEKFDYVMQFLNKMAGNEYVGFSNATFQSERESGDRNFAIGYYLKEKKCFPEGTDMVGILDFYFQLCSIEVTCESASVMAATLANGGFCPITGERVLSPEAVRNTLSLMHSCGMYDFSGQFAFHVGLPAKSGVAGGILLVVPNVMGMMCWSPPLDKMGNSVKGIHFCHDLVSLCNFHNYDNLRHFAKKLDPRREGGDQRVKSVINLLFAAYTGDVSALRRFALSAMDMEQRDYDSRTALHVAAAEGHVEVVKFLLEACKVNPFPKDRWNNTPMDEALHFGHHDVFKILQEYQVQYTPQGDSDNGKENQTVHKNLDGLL
# Chain of UniProt P36969 (P36969 whole entry, looked up): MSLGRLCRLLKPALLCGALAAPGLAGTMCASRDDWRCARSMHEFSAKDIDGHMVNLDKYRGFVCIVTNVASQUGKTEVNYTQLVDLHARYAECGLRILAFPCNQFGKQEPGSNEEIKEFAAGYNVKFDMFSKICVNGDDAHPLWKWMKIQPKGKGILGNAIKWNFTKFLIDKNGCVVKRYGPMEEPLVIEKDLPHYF
structure (smiles),measurement,setting,value
C[C@@H]1[C@H](O)[C@@H](C)C=CC=CC=CC=CC=CC=CC=C[C@H](O[C@@H]2O[C@H](C)[C@H](O)[C@H](N)[C@@H]2O)C[C@@H]2O[C@](O)(C[C@@H](O)C[C@@H](O)[C@H](O)CC[C@@H](O)C[C@@H](O)CC(=O)O[C@H]1C)C[C@H](O)[C@@H]2C(=O)O,Potency,[1],active: 418 nM
same,Potency,[2],"inconclusive: 1.48 µM [cytotoxic, full curve, poor fit]"
same,Potency,[3],"inconclusive: 2.1 nM [rising, full curve, poor fit]"
same,Potency,[4],"inconclusive: 1.2 nM [rising, full curve]"
same,Potency,[5],"inconclusive: 3.7 nM [rising, full curve]"
same,Potency,[6],"inconclusive: 14.8 µM [cytotoxic, partial curve]"
same,Potency,[7],"inconclusive: 33.2 µM [cytotoxic, single point]"
same,Potency,[8],"inconclusive: 2.1 nM [rising, full curve, poor fit]"
same,Potency,[9],"inconclusive: 1.5 nM [rising, full curve, poor fit]"
CCOC(N)=O,Potency,[2],inactive
same,Potency,[10],"inconclusive: 11.2 µM [inhibitor, single point]"
CN(C)CCOC(C)(c1ccccc1)c1ccccn1 (stereo not drawn),Potency,[11],"inconclusive: 11.2 µM [inhibitor, partial curve, poor fit]"
CC(O)C(O)[C@H]1CNc2nc(N)[nH]c(=O)c2N1 (stereo partly drawn),Potency,[12],active: 25.1 µM
CC(C)=CCc1c2c(c3occ(-c4ccc(O)c(O)c4)c(=O)c3c1O)C=CC(C)(C)O2,Potency,[13],"inconclusive: 33 µM [cytotoxic, single point]"
C=C[C@@H]1CN2CC[C@@H]1C[C@H]2[C@H](O)c1ccnc2ccc(OC)cc12,Potency,[13],"inconclusive: 26.1 µM [cytotoxic, partial curve, poor fit]"
Cn1cc(C(F)(F)F)nc1-c1ccc(OCC(O)CNCCOc2ccc(O)c(C(N)=O)c2)cc1 (stereo not drawn),Potency,[14],"inconclusive: 8.91 µM [inhibitor, partial curve]"
CCCCCCN(CCCCCC)C(=O)Cc1c(-c2ccc(F)cc2)[nH]c2ccccc12,Potency,[11],active: 12.6 µM
same,Potency,[14],"inconclusive: 1.12 µM [inhibitor, full curve, poor fit]"
same,Potency,[12],"inconclusive: 8.91 µM [inhibitor, full curve]"
NCC(O)C1CCCCCCC1 (stereo not drawn),Potency,[11],inactive
same,Potency,[15],"inconclusive: 25.1 µM [inhibitor, single point]"
O=C(O)C1=CCCNC1,Potency,[12],inactive
COc1ccccc1N1CCN(CCCNc2c(C)c(=O)n(C)c(=O)n2C)CC1,Potency,[11],"inconclusive: 8.91 µM [inhibitor, partial curve, poor fit]"
same,Potency,[12],inactive
O=C1c2c(O)ccc([N+](=O)[O-])c2C(=O)c2c([N+](=O)[O-])ccc(O)c21,Potency,[13],"inconclusive: 67.6 µM [cytotoxic, single point] and active: 42.6 µM"
S=c1[nH]c(-c2ccccc2)cn1-c1ccccc1,Potency,[12],inactive
O=C(O)c1ccccc1Nc1cccc(OCc2ccc3ccccc3n2)c1,Potency,[14],"inconclusive: 35.5 µM [inhibitor, single point]"
CO[C@H]1C[C@@H](O[C@@H]2/C(C)=C/C[C@@H]3C[C@@H](C[C@]4(CC[C@H](C)[C@@H](C5CCCCC5)O4)O3)OC(=O)[C@@H]3C=C(C)/C(=N/O)[C@H]4OC/C(=C\C=C\[C@@H]2C)[C@]43O)O[C@@H](C)[C@H]1O,Potency,[13],"inconclusive: 37 µM [cytotoxic, single point]"
same,Potency,[16],"inconclusive: 1.12 µM [inhibitor, full curve]"
Cc1c(-c2ccc(O)cc2)nn(-c2ccc(O)cc2)c1-c1ccc(OCCN2CCCCC2)cc1,Potency,[13],active: 29.4 µM
NCCNS(=O)(=O)c1cccc2c(Cl)cccc12,Potency,[11],"inconclusive: 14.1 µM [inhibitor, single point]"
same,Potency,[15],"inconclusive: 25.1 µM [inhibitor, partial curve, poor fit]"
same,Potency,[14],inactive
